Experimental data published in PubChem BioAssay AID1030 (National Center for Advancing Translational Sciences (NCATS), 2008).
About 16,000 (7.3%) of roughly 220,000 compounds were called active. Inconclusive results, whose numbers are uncertain, are shown with a selection of clear calls. The call rests on the fitted dose curve; in most records, active means well fitted inhibition curve with a large enough effect (not every such curve was filed as active); inconclusive means small, poorly fitted or top-dose-only effect, or another doubt; inactive means no such curve, though single readings can be large or run the other way. No potency is given beside an inconclusive call; the fits are too rough.

Each molecule was assayed against Aldehyde dehydrogenase 1A1 (Homo sapiens) (UniProt P00352) (assay: qHTS Assay for Inhibitors of Aldehyde Dehydrogenase 1 (ALDH1A1)). Details: Purified ALDH1A1, NADH fluorescence, propionaldehyde substrate; series mostly up to 75.3 µM; activity, negative = inhibition: at the top concentration.
Potency means the concentration at half of the fitted maximal effect; tags describe the fitted curve by direction and shape.
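Wherever activity, negative = inhibition is given: plate controls were no enzyme wells and a reference inhibitor.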

UniProt P00352, sequence (P00352 whole entry, looked up): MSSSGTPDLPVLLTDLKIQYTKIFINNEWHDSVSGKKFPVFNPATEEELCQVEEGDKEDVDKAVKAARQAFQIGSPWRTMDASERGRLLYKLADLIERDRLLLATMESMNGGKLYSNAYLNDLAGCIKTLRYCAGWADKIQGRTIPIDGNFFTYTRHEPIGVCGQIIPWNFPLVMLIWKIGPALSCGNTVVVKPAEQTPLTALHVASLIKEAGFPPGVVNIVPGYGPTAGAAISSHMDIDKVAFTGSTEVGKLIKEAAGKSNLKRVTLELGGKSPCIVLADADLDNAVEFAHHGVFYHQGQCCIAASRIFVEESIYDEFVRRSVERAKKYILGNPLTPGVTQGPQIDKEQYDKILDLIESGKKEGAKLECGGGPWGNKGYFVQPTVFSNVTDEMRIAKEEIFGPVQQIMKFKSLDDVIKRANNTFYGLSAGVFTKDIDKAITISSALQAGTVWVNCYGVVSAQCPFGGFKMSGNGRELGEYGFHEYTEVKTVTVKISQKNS

Row | Structure (SMILES) | Potency | activity, negative = inhibition
1 | COC(=O)C1=CN(CCCN2CCCC2=O)C=C(C(=O)OC)C1c1cccs1 | inconclusive [inhibitor, partial curve] | –
2 | CC(C)(C)C(=O)NC(=S)Nc1ccc(S(=O)(=O)Nc2nccs2)cc1 | inconclusive [inhibitor, single point] | –
3 | O=C1CCCc2oc3c(c21)CCCC3 | inconclusive [inhibitor, single point] | –
4 | CCn1cc(C(=O)OCC(=O)Nc2cccc(S(=O)(=O)N3CCOCC3)c2)c(=O)c2ccc(C)nc21 | inconclusive [inhibitor, single point] | –
5 | CN1CCN(c2nc(-c3cccs3)cs2)CC1 | inconclusive [inhibitor, single point] | –
6 | CC1N(O)C(C)(C)C(c2ccccc2)=[N+]1[O-] (stereo not drawn) | – | inactive: -5.16%
7 | Cc1nn(-c2ccccc2)c2sc(C(=O)c3c(N)n(C)c(=O)n(C)c3=O)cc12 | inconclusive [inhibitor, single point] | –
8 | COc1ccc(C(=O)N2c3ccccc3C=CC2C#N)cc1 (stereo not drawn) | inconclusive [inhibitor, partial curve] | –
9 | COc1ccc(/C=N/Nc2nncc3ccccc23)c(OC)c1 | inconclusive [inhibitor, single point] | –
10 | COc1ccc(C(C)=O)cc1COC(=O)CNC(=O)c1cc(C)cc(C)c1 | active: 7.94 µM | –
11 | COc1cccc(NC(=O)N2CCN(c3cccc(C)c3C)CC2)c1 | inconclusive [inhibitor, single point] | –
12 | COc1ccccc1N=Cc1nc(-c2ccccc2)oc1OC(C)=O | active: 7.08 µM | –
13 | O=C(/C=C/Nc1ccccc1)c1ccccc1 | inconclusive [inhibitor, single point] | –
14 | Cn1c(=O)[nH]c(=O)c2[nH]c(CN3CCN(C(=O)c4ccco4)CC3)nc21 | inconclusive [inhibitor, single point] | –
15 | CCOC(=O)COc1ccc2c3c(c(=O)oc2c1C)CCC3 | inconclusive [inhibitor, partial curve] | –
16 | CCOC(=O)Nc1sc2c(c1C#N)CCC(C)C2 (stereo not drawn) | inconclusive [inhibitor, single point] | –
17 | CCCCn1c(SCC(N)=O)nc2c(sc3ccccc32)c1=O | inconclusive [inhibitor, partial curve] | –
18 | O=C(CC(c1ccccc1)c1ccco1)Nc1nccs1 (stereo not drawn) | inconclusive [inhibitor, single point] | –
19 | CC(C)C[C@@H](CC(=O)N[C@@H](CCCN)CC(=O)N[C@@H]1CCNC[C@H]1C(=O)N[C@H](CC(=O)N[C@@H](CCC(=O)O)CC(=O)O)CC(C)C)NC(=O)[C@@H]1CCCC[C@H]1N | inconclusive [inhibitor, single point] | –
20 | O=C(CN1CCN(c2ccccn2)CC1)N(c1ccccc1)c1ccc2ccccc2c1 | inconclusive [inhibitor, single point] | –
21 | O=C(CSCc1ccc([N+](=O)[O-])cc1)NC1CCCCCC1 | active: 25.1 µM | –
22 | COc1ccc(-c2n[nH]c(C)c2-c2cnn(-c3ccccc3)c2)c(O)c1C | – | inactive: 9.24%
23 | O=c1c(Cc2ccc(Cl)cc2)c(O)ccn1Cc1ccncc1 | inconclusive [inhibitor, single point] | –

Row | Structure (SMILES) | Potency | activity, negative = inhibition
24 | CCOC(=O)NC(=O)C(/C=N/c1sccc1C(=O)OC)=C(\C)O | inconclusive [inhibitor, single point] | –
25 | CSCCC1NC(=O)N(CC(=O)Nc2ccc(Br)cc2Br)C1=O (stereo not drawn) | – | inactive: 15.5%
26 | CCOc1ccc(-c2cc(C(=O)N3CCN(c4ccccn4)CC3)c3ccccc3n2)cc1 | inconclusive [inhibitor, single point] | –
27 | O=c1cc(-c2ccccc2)nc(N2CCN(Cc3ccccc3)CC2)[nH]1 | inconclusive [inhibitor, single point] | –
28 | Cc1cc(C(=O)c2ccccc2)nc2ccccc12 | inconclusive [inhibitor, single point] | –
29 | CN(C)/C=C/C(=O)c1cccc(Cl)c1 | inconclusive [inhibitor, partial curve] | –
30 | CC(=O)OCC1OC(c2ccc3c(c2)OCO3)C=CC1OC(C)=O (stereo not drawn) | – | inactive: -2.82% [at 13.5 µM]
31 | COc1ccc(C(=O)NC(=O)CSc2nnc(-c3ccco3)n2-c2ccccc2)cc1 | active: 31.6 µM | –
32 | CN(C)S(=O)(=O)N(CC(=O)Nc1ccccc1F)c1ccccc1 | inconclusive [inhibitor, single point] | –
33 | Cc1cc(C)c2oc(-c3ccc(C)c(NC(=S)NC(=O)/C=C/c4ccco4)c3)nc2c1 | – | inactive: -7.5%
34 | O=C(CCSc1ccccc1)N1CCN(c2ccccc2F)CC1 | – | inactive: -54.1%
35 | COC(=O)CN1C(=O)N/C(=C/c2cc(OC)c(OC)cc2C)C1=O | inconclusive [inhibitor, partial curve] | –
36 | CC(C)CCNC(=O)Cn1c2c(c(-c3ccccc3Cl)cc1=O)CCC2 | inconclusive [inhibitor, partial curve] | –
37 | O=C(NNC(=S)Nc1cccc(Cl)c1)c1ccccc1OC(F)F | active: 25.1 µM | –
38 | CCOC(=O)C1=C(SCC)c2cc3c(n2C1=O)CCCC3 | inconclusive [inhibitor, partial curve] | –
39 | CCN1CCc2c(OCC(=O)N3N=C(c4cccs4)CC3c3ccc(F)cc3)cccc2C1=O (stereo not drawn) | inconclusive [inhibitor, single point] | –
40 | O=C1[C@H]2[C@H]3C=C[C@@H](C4[C@H]3[C@@H]3C(=O)N(CN5CCSCC5)C(=O)[C@H]43)[C@H]2C(=O)N1CN1CCSCC1 (stereo partly drawn) | – | inactive: -4.66% [at 13.5 µM]
41 | O=C(c1ccco1)c1coc2c1cc(O)c1ccccc12 | inconclusive [inhibitor, single point] | –
42 | CCCCN(C(=O)Cc1cccs1)c1nnc(-c2cccnc2)s1 | active: 17.8 µM | –
43 | COc1cc(Cl)cc(/C=N/NC(N)=O)c1O | inconclusive [inhibitor, single point] | –
44 | COc1ccc(-n2nnc3c(=O)n(CC(=O)NCC4CCCO4)cnc32)cc1 (stereo not drawn) | inconclusive [inhibitor, single point] | –
45 | COCCn1c(=O)c(-c2ccc(F)cc2)nc2cnc(OC)nc21 | inconclusive [inhibitor, partial curve] | –
46 | COc1ccc(NC(=O)c2ccc(Cc3ccc(C)cc3)o2)cc1 | active: 25.1 µM | –

Row | Structure (SMILES) | Potency | activity, negative = inhibition
47 | Cc1ccc(/C=N/NC(=O)Cc2cccs2)o1 | active: 12.6 µM | –
48 | COc1ccc(C2Nc3ccccc3C(=O)N2Cc2ccco2)cc1COc1ccc(NC(C)=O)cc1 (stereo not drawn) | inconclusive [inhibitor, partial curve] | –
49 | Cn1cccc1/C=N/N1CCN(c2ccccn2)CC1 | inconclusive [inhibitor, single point] | –
50 | O=C(COC(=O)c1cc(S(=O)(=O)N2CCOCC2)ccc1O)NCC1CCCO1 (stereo not drawn) | inconclusive [inhibitor, partial curve] | –
51 | CCOc1ccc(NC(=O)NNC(=O)c2ccc(Cl)cc2Cl)cc1 | – | inactive: 3.26%
52 | O=C(CSc1ccc(-c2ccccc2)nn1)N1CCOCC1 | active: 28.2 µM | –
53 | CCN(CC)S(=O)(=O)c1ccc(Cl)c(NC(=O)c2ccccc2C)c1 | inconclusive [inhibitor, single point] | –
54 | COc1cc(OC)cc(C(=O)Nc2nc3ccc(S(C)(=O)=O)cc3s2)c1 | inconclusive [inhibitor, single point] | –
55 | Clc1ccccc1COc1ccccc1-c1nnco1 | – | inactive: -8.72%
56 | Cc1nc2c(sc3nc4c(cc32)COC(C)(C)C4)c(=O)o1 | active: 28.2 µM | –
57 | CC(=O)c1ccc(S(=O)(=O)N2CCCC2)cc1 | inconclusive [inhibitor, single point] | –
58 | COc1cc2c(cc1OC)C(c1ccccc1)N(C(=O)c1ccco1)CC2 (stereo not drawn) | inconclusive [inhibitor, partial curve, poor fit] | –
59 | Cc1cc2ccccc2c(=O)n1CC(=O)NC1CCCCCC1 | inconclusive [inhibitor, single point] | –
60 | COc1cc(NS(=O)(=O)c2ccc(Br)cc2)c(OC)cc1NC(=O)c1ccco1 | inconclusive [inhibitor, partial curve] | –
61 | C/C(=N\NC(=O)c1ccc(NS(=O)(=O)c2cccs2)cc1)c1ccc2ccccc2c1 | inconclusive [inhibitor, single point] | –
62 | O=C(N/N=C/c1nn(-c2ccccc2)cc1-c1ccc(Cl)cc1)c1ccncc1 | inconclusive [inhibitor, single point] | –
63 | O=C(Nc1cc(C(F)(F)F)ccc1N1CCOCC1)C1Cc2ccccc2CN1C(=O)c1ccco1 (stereo not drawn) | active: 22.4 µM | –
64 | Cc1cc(=O)n2[nH]c(-c3ccco3)nc2n1 | inconclusive [inhibitor, partial curve] | –
65 | CC(C)OC(=O)C1C(=O)CC(C)(O)C(C(=O)OC(C)C)C1c1cccc([N+](=O)[O-])c1 (stereo not drawn) | inconclusive [inhibitor, full curve, poor fit] | –
66 | CCCCNC(=S)N/N=C/c1cc(C)ccc1C | inconclusive [inhibitor, single point] | –
67 | O=C(O)/C=C\C(=O)Nc1ccc(F)c(F)c1F | active: 22.4 µM | –
68 | CCOC(=O)c1ccc(NC(=O)Cn2cccc2)cc1 | inconclusive [inhibitor, single point] | –
